# Measurements reported in the supplement of paper PMC10126150.
# Values marked as one replicate rest on one cluster of the flow cell; about a third of the high ones do not repeat.
# Test system: ATP
# Experiment: switch fluorescence ratio, 500 uM ATP over buffer (Cy3 cluster intensity, sum of 5 cycles each) (fold (ratio)); higher = stronger signal-on switching upon ATP binding; sequences stand for … in TCGTCGGCAGCGTCAGATGTGTATAAGAGACAGTTTTTTTTTTTTTTTTTTTTTTTTT…TC
# Details: aptamer strand: ATP DNA aptamer (quencher-CACCTGGGGGAGTATTGCGGAGGAAGG + anchor), 100 nM annealed; ATP concentration: 500 uM; one replicate
# How it was run: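 Five buffer/ATP imaging cycles were run on Cy3-labelled switching-strand clusters on a modified Illumina MiSeq flow-cell, with NaOH stripping and re-annealing between cycles. In each cycle, clusters annealed to 100 nM quencher-labelled ATP aptamer were imaged in selection buffer, then after 15 min with 500 uM ATP at 22 °C. Per cluster, the fluorescence ratio is summed target-cycle over summed buffer-cycle Cy3 intensity, averaged per switch-domain sequence. Only clusters within 100-1000 RFU were kept.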
# 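Also: ATP exposure 15 min at 22 °C before imaging.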
row,Sequence,switch fluorescence ratio
1,GAAGGCTTGG,1.03
2,GTTTTAAGTT,1.01
3,TTTTGAAGGC,1.04
4,TTCGTCTTTA,0.956
5,AGAATTGGCT,0.971
6,AAGCGCGG,0.999
7,GGGAAATACA,1.02
8,AAGCCATTG,1.02
9,TCCATCGAGC,1.02
10,CATCCCATGG,1.3
11,CAGACTCCCG,1.02
12,ATGTATACAG,0.994
13,CCAAAACTTG,1.02
14,GAGAGGGGTT,1.05
15,GAGTTGAGGT,0.998
16,CGGATGAGCA,1.02
17,CGCATTCGCA,1.15
18,GGTAATTTGC,0.981
19,TAATTCTGCC,1.05
20,TAAACAAGT,0.994
21,TCTGATAATT,0.977
22,GGGACAATAG,1.02

row,Sequence,switch fluorescence ratio
1,CCATATCTAG,1.02
2,CACCCTAAGC,1.07
3,CCATGGTAAG,0.988
4,TGGCCGTTTT,1.06
5,CGAAAAGATA,1.02
6,TTAAGGGTCT,1.03
7,TGAGGCTGCA,1.02
8,GACCGA,1.06
9,CATGATTGTC,1.07
10,CACGATGAAC,1.1
11,ACCGAAAGAA,1.08
12,CCCAAAGTAA,1.18
13,TTGATAACTT,1.03
14,CTATGCATAG,0.994
15,TTAGTAAATA,0.986
16,ACCGGCGGCG,1.01
17,CACTGTT,1.09
18,TGATTCGTG,0.954
19,TGTGATTAC,0.984
20,CCGGGCAGTC,2.74
21,TTTTAGCGAG,0.998
22,CCTCTGGCCA,3.37

row,Sequence,switch fluorescence ratio
1,TGAATATGTC,0.98
2,CATGGTAGGT,1.02
3,GCTAGTCGGT,0.98
4,CGAATAGGTT,0.966
5,TCGTAAATAT,1.09
6,TACATCCCAC,1.24
7,ATAGCCTGAT,1.02
8,TCTCTAAACG,1.06
9,CAGCTCAGGA,1.02
10,GTGACCTATG,0.992
11,TCGGTGTCTT,1.01
12,AGGTACACG,0.958
13,TTCGGTGGAT,0.975
14,GGTGTAACGG,0.949
15,GAGAGGATGA,1.02
16,CAACCGTCGG,1.08
17,AATTCAAGGG,1.01
18,GATGGCGGAC,1.05
19,TCTAATACAT,1.01
20,TAATGAAGGC,0.954
21,CTAGGGGAAT,0.98
22,AGAACGGGGG,0.89

row,Sequence,switch fluorescence ratio
1,AATAATGCAC,1.06
2,AATTTTAAAA,1.05
3,TTTGACCATT,0.968
4,CCCAGTTTTG,1.04
5,AGCAGCGGAC,1.77
6,CGTAAGTTAG,1.02
7,CTACATTTTC,1.03
8,GCCAGGCCAG,0.994
9,TTTTTGAAA,1.07
10,TCTCCTGAAT,0.992
11,TTTACTAGAC,1.53
12,TCCTGCTTTA,0.985
13,TTATCGAGCA,0.945
14,TCGACCGATG,1.01
15,CTATCTTAGA,0.998
16,TTCGTTGAT,1.03
17,GAAGTTATTC,0.999
18,CTGAGGACC,1.06
19,TATTACTACT,1.06
